# In PubChem BioAssay AID488969 (Vanderbilt High Throughput Screening Facility, 2010):
# Whole data set: some 110,000 compounds, median “z-score” near -0.1, cut for the highest 2% near 2. This is one part of the list.
# Target: Metabotropic glutamate receptor 8 (Rattus norvegicus) (UniProt P70579)
# Experiment: rat mGluR8 modulators via GIRK flux, primary screen, cell-based, thallium flux, HTS (AID 488969)
# Conditions: HEK293 rat mGluR8, GIRK (G protein-gated inwardly rectifying potassium channel) thallium flux, FluoZin2; at 10 µM; stronger effect = higher value; submaximal glutamate (EC20) added with thallium
# Chain of UniProt P70579 (P70579 whole entry, looked up): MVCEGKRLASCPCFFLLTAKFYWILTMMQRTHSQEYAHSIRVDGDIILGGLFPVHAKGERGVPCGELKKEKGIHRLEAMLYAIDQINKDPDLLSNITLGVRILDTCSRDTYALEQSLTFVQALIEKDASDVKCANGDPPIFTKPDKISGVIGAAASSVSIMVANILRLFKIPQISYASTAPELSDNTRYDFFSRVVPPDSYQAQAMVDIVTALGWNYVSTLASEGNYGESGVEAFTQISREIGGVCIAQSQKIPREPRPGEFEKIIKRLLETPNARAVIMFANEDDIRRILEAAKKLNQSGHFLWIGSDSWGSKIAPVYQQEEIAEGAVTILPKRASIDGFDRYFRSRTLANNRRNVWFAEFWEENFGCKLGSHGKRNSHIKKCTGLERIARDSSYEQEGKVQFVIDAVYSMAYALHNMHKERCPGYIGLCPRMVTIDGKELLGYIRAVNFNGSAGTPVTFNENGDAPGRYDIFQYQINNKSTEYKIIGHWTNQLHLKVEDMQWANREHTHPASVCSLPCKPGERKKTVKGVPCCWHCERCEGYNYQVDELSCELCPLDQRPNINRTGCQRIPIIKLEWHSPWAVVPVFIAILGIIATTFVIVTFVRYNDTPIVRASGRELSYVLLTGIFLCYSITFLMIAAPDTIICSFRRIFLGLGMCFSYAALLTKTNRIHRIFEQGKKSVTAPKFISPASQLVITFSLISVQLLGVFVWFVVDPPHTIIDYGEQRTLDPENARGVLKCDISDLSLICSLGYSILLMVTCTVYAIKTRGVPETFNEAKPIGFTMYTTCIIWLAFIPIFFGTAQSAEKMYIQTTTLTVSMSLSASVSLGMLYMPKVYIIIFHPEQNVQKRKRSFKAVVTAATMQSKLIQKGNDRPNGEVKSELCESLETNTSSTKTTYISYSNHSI
row,SMILES,z-score
1,Cc1ccc2c(n1)CC(C)(C)CC2=O,0.488
2,O=[N+]([O-])c1cc(-c2nnc(C34CC5CC(CC(C5)C3)C4)o2)cc([N+](=O)[O-])c1,-0.0494
3,O=C(Nc1cccc(-c2nc3cc(Cl)ccc3o2)c1)C1CCCO1 (configuration not stated),-0.897
4,O=C(O)Cn1nc2ccccc2n1,0.054
5,CCN1CCN(CC(=O)NC2CCCC2)C(=O)C1=O,0.151
6,CN1CCN(CCOc2cccc(Cl)c2)CC1,0.0749
7,CCc1nnc(NS(=O)(=O)c2ccc(N=Cc3c(C)[nH]n(-c4ccc(Cl)cc4)c3=O)cc2)s1,-0.276
8,CC(C)CNC(=O)COC(=O)c1ccc(Cl)c(S(N)(=O)=O)c1,-0.04
9,CC(/C=C/c1ccc(Cl)o1)=C\C(=O)O,-0.292
10,COc1ccccc1NC(=O)CNS(=O)(=O)c1ccccc1,-0.239
11,Cc1cccc(NCc2nc3ccccc3n2C)c1,0.0676
12,Cc1ccc(OCc2nc3c4c(ncn3n2)-c2ccccc2CC42CCCC2)cc1,0.173
13,COc1ccc(C)cc1NC(=O)c1ccc(CN2CCN(c3ccccc3)CC2)cc1,-0.262
14,Cc1nn(CCC(=O)NNC(=S)Nc2ccc(F)cc2)c(C)c1Br,1.23
15,COCCNC(=O)c1cc(-c2cccc(OC)c2)on1,-0.215
16,CCS(=O)(=O)c1ccc2oc(SCC(=O)NC3CCCC(C)C3C)nc2c1 (configuration not stated),-0.206
17,O=C(NC12CCC(O)C(SC1)/C2=N/O)c1ccccc1 (configuration not stated),0.441
18,O=C(NC(=S)NCC1CCCO1)c1cccc([N+](=O)[O-])c1 (configuration not stated),0.722
19,O=C(N/N=C/C=C/c1ccc2c(c1)OCO2)c1ccc([N+](=O)[O-])cc1,0.0517

row,SMILES,z-score
1,C/C(N)=C(/C#N)C(=O)CSc1nnc(Nc2cccc(C)c2C)s1,0.137
2,COCc1cc(C)nc(N2CCCCC2)c1C#N,0.196
3,Cc1cccc(N(C(=O)c2nsc(Cl)c2Cl)C(C(=O)NC2CCCC2)c2ccc(O)cc2)c1C (configuration not stated),0.0533
4,Fc1ccccc1C(c1nnnn1Cc1ccc2c(c1)OCO2)N1CCN(Cc2ccco2)CC1 (configuration not stated),-0.322
5,O=C(CN1C(=O)C2CC=CCC2C1=O)Nc1nnc(SCc2ccc(Cl)cc2)s1 (configuration not stated),-0.31
6,CC1Cc2ccccc2N1C(=O)c1cnsn1 (configuration not stated),0.579
7,CCCOc1ccc(-c2csc(N)n2)cc1[N+](=O)[O-],-0.349
8,C=CCn1c(CCCOc2ccc(Cl)cc2Cl)nnc1SCC(=O)Nc1nccs1,-0.131
9,COCCn1c(=NC(=O)c2cc(Cl)sc2Cl)sc2cc(S(N)(=O)=O)ccc21,-0.409
10,CCOC(=O)N1CCC2(CC1)C(C#N)=C(N)Oc1n[nH]c(C)c12,-0.141
11,O=C(NCCc1ccc(F)cc1)N1CCOCC1,-0.308
12,COc1ccc(N2CCN(C(=O)CSc3nnc(-c4ccc5[nH]c(C)c(C)c5c4)o3)CC2)cc1,-0.322
13,CCCOC(=O)C1C2C=CC(C2)C1C(=O)OCC(=O)c1ccccc1 (configuration not stated),-0.143
14,O=C(CC12CC3CC(CC(C3)C1)C2)N/N=C/c1ccc([N+](=O)[O-])o1,0.0479
15,Cc1cccc(C)c1N1CC(=O)N(c2c(C)cccc2C)CC1=O,-0.0539
16,CCCCC(=O)NS(=O)(=O)c1ccc(N=NN2CCOCC2)cc1,-0.294
17,Cc1cc(C)cc(N2Cc3ccccc3C2)c1,-0.0226
18,Cc1ccc(OCC(=O)n2nc(C)cc2C)c(C)c1,0.688
19,O=C(CN1CCN(Cc2ccccc2F)C1=O)NCc1cccnc1,-0.0488

row,SMILES,z-score
1,O=c1cc(-c2ccc3c(c2)OCCO3)oc2ccc(Cl)cc12,0.00721
2,COc1ccc(NC(=O)c2ccc(-c3ccc([N+](=O)[O-])cc3)o2)cc1OC,-1.57
3,CN(C)CCNC(=O)CN1C(=O)COc2ccc(C(C)(C)C)cc21,-0.247
4,CCOC(=O)c1cnn(-c2ccc(C(F)(F)F)cn2)c1N,-0.00627
5,CCc1cccc2c(C(=O)CSc3nncn3-c3ccccc3OC)c[nH]c12,-0.601
6,Cc1cccc2cc(CN(CC3CCCO3)C(=O)c3ccco3)c(=O)[nH]c12 (configuration not stated),-0.233
7,O=[N+]([O-])c1cc(/C=N/Nc2nc(N3CCCCC3)nc(N3CCCCC3)n2)ccc1O,-0.557
8,Clc1cc(Cl)cc(CSc2nnc(-c3sccc3-n3cccc3)o2)c1,0.398
9,CCNC(=S)N(Cc1cc2cccc(C)c2[nH]c1=O)C1CCCC1,0.976
10,COc1nc(NCCN2CCOCC2)nc(Nc2ccc([N+](=O)[O-])cc2)n1,1.5
11,COCCCNC(=O)CN(c1cc(Cl)cc(Cl)c1)S(C)(=O)=O,0.195
12,CCOC(=O)/C=c1\sc2n(c1=O)CCN=2,-0.165
13,COc1ccc(N2C(=O)CC(NCCNc3ccc([N+](=O)[O-])cn3)C2=O)cc1 (configuration not stated),-0.27
14,Cc1nnc(SCC(=O)NC2CCCC2)s1,0.395
15,CC(C)(C)NCCOCCOc1ccccc1-c1ccccc1,-0.146
16,Cc1cc(=O)oc(C)c1C(=O)Nc1cnc2ccccc2c1,0.494
17,Cc1ccc2nc(-c3ccc(S(=O)(=O)N4CCOCC4)cc3)cn2c1,-0.531
18,Cc1cccn2cc(-c3ccc(S(=O)(=O)N4CCOCC4)cc3)nc12,-0.0314
19,COc1ccc(-c2nnc(SC(C)C(=O)NNC(=O)c3ccc(C)cc3)o2)cc1 (configuration not stated),2.1
